PubChem BioAssay AID1508642 (National Center for Advancing Translational Sciences (NCATS), 2021)
Hit rate of the full screen: of about 43,000 compounds, about 200 (0.47%) were called active. Roughly 12% stayed inconclusive and do not appear here. Calls come from the whole dose curve; as a rule, active = well fitted cell-killing curve with a large enough effect; inconclusive = small, poorly fitted or top-dose-only effect, or effect the other way; inactive = flat fitted curve, though single readings scatter. Some of the results follow.

Assay: Cell viability qHTS assay in S16 Pmp22-F2sN cells; note: nearly all actives have a fitted effect of over 65% in size
Details: S16 Pmp22-F2sN Schwann cells (luciferase reporters placed in the Pmp22 gene) viability, CellTiter-Glo, 24 h; series mostly up to 57.5 µM; activity change, negative = cytotoxicity: at the top concentration
Summary of the method: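 Seed 500-1,000 S16 Pmp22-F2sN cells per well in phenol-red-free DMEM with 10% heat-inactivated FBS; pin-add 23 nL compound; incubate 24 h at 37C; add CellTiter-Glo, wait 15 min protected from light; read luminescence.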
% is set by controls: 0 for no effect and ±100 for the full control effect.

Compound	activity change, negative = cytotoxicity
CCc1ccc(S(=O)(=O)c2c(C(=O)c3ccc(C)c(C)c3)cnc3ccccc23)cc1	inactive: -2.82%
COc1cccc(N2CCN(c3ccc4nnc(CCC(=O)O)n4n3)CC2)c1	inactive: 18%
CCn1c(=O)cc(OCC(=O)Nc2cc(OC)c(OC)c(OC)c2)c2ccccc21	inactive: -7.13%
COCCNC(=O)CSc1nc2ccccc2nc1Cc1ccc(C)cc1	inactive: 14.4%
COc1ccc(CCNC(=O)CCCCCn2c(SCC(N)=O)nc3cc4c(cc3c2=O)OCO4)cc1OC	inactive: 12.3%
CCN(CC)S(=O)(=O)c1ccc2c(c1)N(CC(=O)Nc1ccc(F)cc1)C(=O)CO2	inactive: -7.98%
Cc1ccc(S(=O)(=O)N2CCCc3cc(NC(=O)c4ccccc4Cl)ccc32)cc1	inactive: -8.33%
Cc1ccc(C)c(N(C)C(=O)C2CCN(c3ncnc4c3nc3n4CCCCC3)CC2)c1	inactive: -1.23%
O=C(NCC(c1cccnc1)N1CCN(Cc2ccccc2)CC1)C(=O)Nc1cccc(F)c1 (stereo unspecified)	inactive: -18%
CCOC(=O)CC(NC(=O)Cn1nnc(-c2ccc(C(F)(F)F)cc2)n1)c1ccc(C)cc1 (stereo unspecified)	inactive: 6.75%
O=C(CC1Oc2ccc(Cl)cc2NC1=O)NCc1ccccc1 (stereo unspecified)	inactive: 3.22%
COc1ccc(N2CCN(C(=O)c3ccc4nc(N5CCC(C)CC5)sc4c3)CC2)cc1	inactive: -9.21%
Cc1ccc(Cl)cc1N(C)C(=O)c1cnc(N2CCOCC2)c2ccccc12	inactive: 18.1%
CCN(CC)C(=O)C1CCCN(c2ncnc3onc(C)c23)C1 (stereo unspecified)	inactive: -4.33%
COc1ccc2nc(N3CCN(C(=O)C4CC4)CC3)sc2c1	inactive: 2.23%
COc1ccc(NC(=O)N2CCc3c([nH]c4ccc(OC)cc34)C2c2ccc(OC)cc2)cc1 (stereo unspecified)	inactive: -21.2%
COC(=O)c1cc2oc3ccccc3c2n1Cc1c(F)cccc1Cl	inactive: -0.825%
CCc1cccc(NC(=O)CN2CCCN(Cc3cccc(C)c3)S2(=O)=O)c1	inactive: 6.46%
CC(NC(=O)c1sc2ncccc2c1-n1cccc1)c1ccccc1 (stereo unspecified)	inactive: 2.77%
COc1cccc(-c2nc3c(C#N)c[nH]n3c2NC2CCCCC2)c1OC	inactive: -21.9%
O=C(NCCS(=O)(=O)N1CCN(c2ccc(F)cc2)CC1)c1cc(=O)c2ccccc2o1	inactive: -2.11%
COc1ccccc1N1CCN(S(=O)(=O)c2cc3[nH]c(=O)c(=O)[nH]c3cc2C)CC1	inactive: 8.79%
Cc1ccc2occ(CC(=O)N(Cc3ccc(N(C)C)cc3)C3CCS(=O)(=O)C3)c2c1 (stereo unspecified)	inactive: 2.66%
CCOc1ccc(CNC(=O)CCC(=O)N2CCSc3ccccc32)cc1	inactive: 0.342%

Compound	activity change, negative = cytotoxicity
CCN(CC)c1ccc(NC(=O)CN2CCN(CC(=O)Nc3ccccc3OC)CC2)cc1	inactive: -11.6%
COc1ccccc1CNC(=O)c1ccc(CN2CC(=O)N3CCCCC3C2=O)cc1 (stereo unspecified)	inactive: 1.71%
Cc1ccc(C)c(NC(=O)N2CCC(N3CCN(Cc4ccc(F)cc4)C(=O)C3=O)CC2)c1	inactive: -3.47%
COc1ccccc1C(=O)NCC1(N2CCN(C)CC2)CCCCC1	inactive: 1.53%
Cc1cc2c(cc1S(=O)(=O)N(C)CC(=O)Nc1cccc(C#N)c1)OCC(=O)N2	inactive: -1.43%
CC1=Nc2cc(C(=O)NC3CCCC3)ccc2Sc2ccc(Br)cc21	inactive: 2.61%
CCOC(=O)c1cccc(NC(=O)CCn2nc(C)c3c(C)n(-c4ccccc4)nc3c2=O)c1	inactive: -0.021%
COCCCNC(=O)C1CCCN(S(=O)(=O)c2ccc3c(c2)oc(=O)n3C)C1 (stereo unspecified)	inactive: -1.48%
CCOCCCNC(=O)c1c[nH]c2ccc(S(=O)(=O)Nc3cccc(Cl)c3C)cc2c1=O	inactive: -7%
CCOC(=O)N1CCc2c(sc3c2c(=O)n(-c2ccc(Cl)cc2)c(=O)n3Cc2cccc(C)c2)C1	inactive: 1.81%
Cn1c(=O)oc2cc(S(=O)(=O)N3CCCC(C(=O)N4CCN(c5ccccc5F)CC4)C3)ccc21 (stereo unspecified)	inactive: -0.737%
CCOCCCn1c(SCC(=O)NCCCOC)nc2c(sc3ccccc32)c1=O	inactive: -12.8%
Fc1ccc(Nc2ncnc3c2nc2n3CCCC2)cc1	inactive: -6.2%
Cc1c(NC(=O)c2ccccc2)cc(C(C)C)c(O)c1S(=O)(=O)c1ccc(Cl)cc1	inactive: 6.97%
COC(=O)c1ccc(NS(=O)(=O)c2ccc3c(c2)n(C)c(=O)c(=O)n3C)cc1	inactive: -5.3%
CCOC(=O)c1ccc(CN(Cc2ccc(F)cc2)S(=O)(=O)c2ccc(F)c(C(=O)Nc3ccccc3C(F)(F)F)c2)cc1	inactive: -6.2%
Cn1c2c(c(=O)n(C)c1=O)C(c1ccccc1C(F)(F)F)CC(=O)N2 (stereo unspecified)	inactive: 18.3%
Cn1c(COc2ccccc2C(C)(C)C)nc2ccccc21	inactive: -1.82%
COc1ccc(S(=O)(=O)c2cc3cc(C(C)(C)C)cc(O)c3oc2=O)cc1	inactive: -23.2%
CCCCCn1c(=N)c(S(=O)(=O)c2ccc(C)cc2)cc2c(=O)n3cc(C)ccc3nc21	inactive: 4.19%
O=C(c1ccc2c(c1)N(Cc1cccc(Cl)c1)C(=O)c1ccccc1S2(=O)=O)N1CCc2ccccc21	inactive: 11.6%
CCc1ccccc1N(CC)C(=O)C(=O)Nc1ccc2nc3n(c(=O)c2c1)CCCCC3	inactive: -19.7%
CCNC(=O)CC1C(=O)N(c2ccc(F)cc2)C(=O)N1Cc1ccc(OC)c(OC)c1 (stereo unspecified)	inactive: 0.108%
Cc1ccc(C(=O)N2CCN(c3cccc(Cl)c3)CC2)cc1-n1c(C)nc2cccnc21	inactive: -27.2%

Compound	activity change, negative = cytotoxicity
Cc1ccc(NC(=O)CSc2nnc(-c3cc4occc4n3C)n2-c2ccccc2C)c(C)c1	inactive: -3.35%
COc1ccc(-n2c(SC)nc3sc4c(c3c2=O)CCN(C(C)=O)C4)cc1	inactive: 2.85%
FC(F)(F)c1cccc(N2CCN(c3nc4ccccc4n4cnnc34)CC2)c1	inactive: -12.5%
CCS(=O)(=O)N1CCc2cc(C(=O)NC(C)c3ccccc3)ccc21 (stereo unspecified)	inactive: 24.1%
O=c1c2sc3ccccc3c2n(Cc2cccc(C(F)(F)F)c2)c(=O)n1-c1ccccc1	inactive: 7.42%
Cc1ccc2c(c1)N(C(=O)Nc1ccc(Br)cc1F)CCO2	inactive: 2.86%
Cc1ccn2c(=O)cc(COc3ccc(NC(=O)C(C)(C)C)cc3)nc2c1	inactive: 13.8%
COC(=O)c1ccccc1NC(=O)CSc1n[nH]c(C)n1	inactive: 8.74%
COc1ccc(OC)c(CNS(=O)(=O)c2cc(-c3onc(C)c3C)ccc2C)c1	inactive: 3.04%
CCN(CC)C(=O)c1sc2c(c1C)c(=O)n(-c1ccc(C)c(C)c1)c(=O)n2CC(=O)Nc1ccc(OC)cc1OC	inactive: -15.5%
O=C(c1ccccc1)N1CCC(c2nc3ccccc3o2)CC1	inactive: -5.59%
COc1ccc(CCNC(=O)c2cnn(-c3cccc(C)c3)c2C2CCNCC2)cc1OC	inactive: 1.49%
CN1C(=O)Cc2cc(S(=O)(=O)CCC(=O)Nc3ccc(Cl)cc3)ccc21	inactive: -9.9%
CC(=O)c1ccc(NC(=O)c2cc3c([nH]c2=O)CC(c2ccccc2)CC3=O)cc1 (stereo unspecified)	inactive: -10.9%
CCOc1ccc2c(c1)c(=O)c(C(=O)c1ccccc1)cn2Cc1ccccc1F	inactive: 1.62%
Cc1ccc(S(=O)(=O)c2[nH]c(-c3ccccc3)nc2SC(C)C(=O)O)cc1 (stereo unspecified)	inactive: -2.15%
Cc1cc(C)n2c(Nc3ccc4c(c3)OCCO4)c(-c3ccccc3)nc2n1	inactive: -8.09%
COc1ccc(N2CCN(CCCNC(=O)c3nnc(Cc4ccccc4Cl)o3)CC2)cc1	inactive: 7.4%
COc1ccc(/C=C/C(=O)Nc2cc(-c3nc4ccccc4o3)ccc2OC)cc1	inactive: 11.1%
CC(=O)c1ccc(NC(=O)CSc2nnc(-c3ccncc3)n2-c2ccccc2)cc1	inactive: 22.9%
COCCN1C(=O)N(c2cccc(OC)c2)C(=O)C1CC(=O)Nc1ccccc1 (stereo unspecified)	inactive: 5.63%
O=C(NCc1ccc(Cl)cc1)C(=O)NCC(c1ccc2c(c1)OCO2)N1CCOCC1 (stereo unspecified)	inactive: 16.9%
COc1cc2ccccc2cc1C(=O)N1CCN(c2nc3c(F)cccc3s2)CC1	inactive: -0.189%
CC(=O)Nc1ccc(NC(=O)c2csnn2)cc1	inactive: -3.2%

Compound	activity change, negative = cytotoxicity
CCCCc1nn2c(=O)cc(COC(=O)c3cccc(NC(=O)c4cccs4)c3)nc2s1	inactive: 2.03%
CC(NC(=O)CCc1cn(Cc2ccccc2Cl)c2ccccc12)c1ccccc1 (stereo unspecified)	inactive: -3.26%
O=C(NCCc1ccccc1)c1ccc(CSc2nc3cccnc3n2Cc2ccccc2)cc1	inactive: -8.7%
COc1ccc(C(CC(=O)Nc2ccccn2)N2Cc3ccccc3C2=O)cc1OC (stereo unspecified)	inactive: 2.11%
CCc1ccccc1NC(=O)Cn1nnc(C(=O)NCc2ccco2)c1N	inactive: -16.1%
CCOC(=O)c1nnc2c(-c3ccc(Cl)cc3)c(C)nn2c1N	inactive: -0.675%
CC(C)CN(c1ccccc1)S(=O)(=O)c1nnc(NC(=O)C2CCCCC2)s1	inactive: 4.14%
O=C(NCCO)C(=O)NCC(c1ccc2c(c1)OCO2)N1CCOCC1 (stereo unspecified)	inactive: 9.63%
COc1ccc(/C=C/c2nc(C#N)c(N3CCC(C(N)=O)CC3)o2)cc1OC	inactive: 0.21%
Cc1ccc(-c2nc(CS(=O)(=O)CC(=O)NC(C)CCc3ccccc3)c(C)o2)cc1 (stereo unspecified)	inactive: 2.13%
CCOC(=O)C1CCN(c2cc3c(cc2NC(=O)c2ccccc2Cl)n(C)c(=O)n3C)CC1	inactive: -6.91%
O=C(O)CCc1ccc(-c2ccc(Br)cc2)n1-c1ccccc1O	inactive: 8.69%
CCOCCCNC(=O)c1ccc(-c2nc(CS(=O)(=O)c3ccccc3)c(C)o2)cc1	inactive: -22.6%
CNC(=O)C1CCCN(c2nnc(C)c3c(C)n(-c4ccccc4)nc23)C1 (stereo unspecified)	inactive: 0.631%
O=C(Nc1ccc(F)c(Cl)c1)c1cc(S(=O)(=O)NCc2ccc3c(c2)OCO3)ccc1F	inactive: -6.37%
Cc1cc2nc(-c3ccc(NC(=O)c4ccc(OCC(C)C)cc4)cc3)oc2cc1C	inactive: 0.313%
CCOc1cccc2sc(N(Cc3cccnc3)C(C)=O)nc12	inactive: -15.8%
CCCCN(CC)CCNC(=O)Cn1cnc2sc(C)c(S(=O)(=O)N3CCN(c4ccccc4OC)CC3)c2c1=O	inactive: -2.4%
CC(C)Cc1nn2cc(-c3cccc(Br)c3)nc2s1	inactive: -4.03%
CCOc1ccc(N2CC(c3nc4ccccc4n3CCOc3ccc(OC)cc3)CC2=O)cc1 (stereo unspecified)	inactive: -11.1%
CCS(=O)(=O)NCCc1sc2nc(-c3ccc(OC)cc3)nn2c1C	inactive: -28.1%
O=C(CNS(=O)(=O)c1ccc(Br)s1)N1CCN(c2ccc(F)cc2)CC1	inactive: -0.403%
COCCNS(=O)(=O)c1cc(-c2nn3c(C)nnc3c3ccccc23)ccc1C	inactive: 1.72%
Cc1ccc(NC(=O)N2CCN(C(=O)c3nsc4ccccc34)CC2)cc1C	inactive: 0.044%
